Consider 54 sequences from publication PMC7819943, “Rice protein-binding microarrays: a tool to detect cis-acting elements near promoter regions in rice”.

The other results are listed elsewhere or left out.

For this experiment, the target named is T1, OsWOX13 (Oryza sativa, UniProt Q5QMM3 1-267).
T1 sequence: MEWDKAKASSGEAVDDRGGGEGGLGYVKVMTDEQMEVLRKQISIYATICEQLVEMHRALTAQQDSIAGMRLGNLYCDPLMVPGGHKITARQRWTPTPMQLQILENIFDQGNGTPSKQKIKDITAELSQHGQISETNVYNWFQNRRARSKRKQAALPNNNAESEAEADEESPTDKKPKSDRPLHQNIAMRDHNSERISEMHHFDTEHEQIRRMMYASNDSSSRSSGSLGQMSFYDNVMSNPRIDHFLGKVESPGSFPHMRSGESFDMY
In words: protein-binding microarray (RPBM); PBS, 2% BSA, 51.3 ng/ul salmon testes DNA, 50 uM zinc acetate, 200 nM TF, 25 C, 1 h; high values mean tight binding. To be noted: protein: recombinant; tags: N-terminal polyhistidine and DsRed monomer fusion (pET32a); label: CyDye5-dUTP incorporated in the synthesized complementary strand; 3' TTTTT single-stranded linker to array surface; dsDNA, one strand shown. The procedure, abridged:
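The binding signal is fluorescence intensity per feature, in arbitrary units, read on an Axon 4000B scanner. Polyhistidine- and DsRed-tagged transcription factors (N-terminal fusions) from E. coli BL21-CodonPlus were purified on Ni–NTA and applied at 200 nM for 1 h at 25 °C to a double-stranded, BSA-blocked custom Agilent array in buffer with 50 µM zinc acetate.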
As to “GTGGAATAATTTGTAATTATGATTGTCATACTATACTGCTCGGAGTCACCTAGTGCAG”, the binding signal is 47500 fluorescence intensity (a.u.).

As for “AAGTAAAATAATTTATTCAAATACTAGGTCATTTATAATGCGGAGTCACCTAGTGCAG”, the binding signal was 3860 fluorescence intensity (a.u.). Consider “TACACAGATTTCATGTAAATTGCAAGACGAATCTTTTAAGCGGAGTCACCTAGTGCAG”, for which the binding signal is 6670 fluorescence intensity (a.u.). With “CTGAATAGTTGAATGATTTGTTACGATTATTTTGATGGTACGGAGTCACCTAGTGCAG”, the binding signal was 16700 fluorescence intensity (a.u.). Consider “ACTTCCAGTAATTCCATTAAATTGTGATCTATCTAATGGCCGGAGTCACCTAGTGCAG”, for which the binding signal is 4670 fluorescence intensity (a.u.). In the case of “CATGAGTAAATTGTATTATTGCATCCTCACGTGCATGTCTCGGAGTCACCTAGTGCAG”, the binding signal was 5540 fluorescence intensity (a.u.). To “TTTCATTCGATGGATTGATTCATCGCCCAAGCTAACCATGCGGAGTCACCTAGTGCAG” belongs 4590 fluorescence intensity (a.u.); to “ATCGTAGTGATTAAGTTTCAATTATCTGAACAAACCAACACGGAGTCACCTAGTGCAG”, 14800 fluorescence intensity (a.u.). As to “ACTAAATTTAGGATTTGGAGCTCTACCAAACAGGCCAGGCCGGAGTCACCTAGTGCAG”, the binding signal is 10400 fluorescence intensity (a.u.). “ATTCCTCATTAATTAGCCAAATCACCGAGGGGCTCCGCACCGGAGTCACCTAGTGCAG”: the binding signal was 15900 fluorescence intensity (a.u.).

“CCTGATAGACTTCTCCACGTTCTTCTCCTCCCTCTGCACACGGAGTCACCTAGTGCAG”: the binding signal is 39100 fluorescence intensity (a.u.). As to “CGATGATTGGGCAAAGTCTTGGCTCAGTTTATCTTGCATGCGGAGTCACCTAGTGCAG”, the binding signal was 49200 fluorescence intensity (a.u.). Turning to “ACCCCACTAATTTTATTATTGTGCATATATAATATAATATCGGAGTCACCTAGTGCAG”, the binding signal is 4370 fluorescence intensity (a.u.). To “ACCCCTTAAATAAATTAAACAATCTAGCTTGGACAACATTCGGAGTCACCTAGTGCAG” belongs 13000 fluorescence intensity (a.u.); to “TAGAATTGAACATAACCGAGTATTATAAATCTGAATATGGCGGAGTCACCTAGTGCAG”, 6660 fluorescence intensity (a.u.). Take “CCAGGATAGACAACATGTCTAACTTACGATTACTCTGCAACGGAGTCACCTAGTGCAG”: the binding signal is 3800 fluorescence intensity (a.u.). Take “AATTTGAAATTTCAAACTTAATTTTAACATTGATTTTGAGCGGAGTCACCTAGTGCAG”: the binding signal was 6660 fluorescence intensity (a.u.).

As to “TGTATGCGATTTGATTAAACTTTTAAAATGTTGATTATTACGGAGTCACCTAGTGCAG”, the binding signal is 4680 fluorescence intensity (a.u.). The value for “AGAAACCTAATTAGTGGACCTAAGCACACTTCATGATCATCGGAGTCACCTAGTGCAG” was 9380 fluorescence intensity (a.u.); that for “AAATTTAAATTGTCTAGAAGAGCTTTTGTCTATTTTGGGGCGGAGTCACCTAGTGCAG” was 5440 fluorescence intensity (a.u.); that for “TTGATCAGTAATTTGTAATAGAGGTAATTTGCTGAAATTCCGGAGTCACCTAGTGCAG” was 16700 fluorescence intensity (a.u.). “TTAATTATCTCTAGGGGTGAAATTATTTGACAAGGCGACACGGAGTCACCTAGTGCAG”: the binding signal is 3580 fluorescence intensity (a.u.).

As for “ATAAATTAAAATTGCACATTGCATAGCCTTATCAATGTGTCGGAGTCACCTAGTGCAG”, the binding signal was 26900 fluorescence intensity (a.u.). As to “CTTACATGTTAATTAACTTTAAAAGTTAGTAGACATCAACCGGAGTCACCTAGTGCAG”, the binding signal is 14900 fluorescence intensity (a.u.). The value for “GATGTTGGATCTCGACTGTAATTGATCAGTTTCATGAAGACGGAGTCACCTAGTGCAG” was 8240 fluorescence intensity (a.u.); that for “TAAGAGTTAATCTTGATTGGTTGAATGTAGTGTATTTAATCGGAGTCACCTAGTGCAG” was 13400 fluorescence intensity (a.u.); that for “CACCACGCGTCAGTTTATCAATCTGCATGTTCGCCCTTCTCGGAGTCACCTAGTGCAG” was 4990 fluorescence intensity (a.u.).

As for “ATTGAGCAAATTTGCACTTATTTGTGTTCAGATATATCGTCGGAGTCACCTAGTGCAG”, the binding signal was 4790 fluorescence intensity (a.u.).

“ACGTCAAATCAATCTCTGCTAATAATGCAAGGCACCACTGCGGAGTCACCTAGTGCAG”: the binding signal is 15000 fluorescence intensity (a.u.). On to “GGTGTAATAATGATGTGATTACGTCGCATCTAACTTGTGACGGAGTCACCTAGTGCAG”, for which the binding signal is 16100 fluorescence intensity (a.u.). Consider “TAAATATGCCTATGATTGTTTCTTCAAACCCAGACTTCTGCGGAGTCACCTAGTGCAG”, for which the binding signal was 7060 fluorescence intensity (a.u.). Regarding “CGGCATCCAAATTGGCAACAAATAGTTCGTGTGACGTTAACGGAGTCACCTAGTGCAG”, the binding signal is 3550 fluorescence intensity (a.u.). To “TGTGATAGGGAAATGCTACGGGACGGTATCCTGTTCGAACCGGAGTCACCTAGTGCAG” belongs 5250 fluorescence intensity (a.u.); to “TTTTATGATTGGTGGATACGTAGAGTGGATTGTGAGGTTACGGAGTCACCTAGTGCAG”, 36100 fluorescence intensity (a.u.); to “ATCCGATGTTTGTTAATTTGATGCGGTTTAGCTGGCAGCTCGGAGTCACCTAGTGCAG”, 4080 fluorescence intensity (a.u.). To “AACAAAACAAATTACAGATTCCGCTTGTAAACTGCGAGACCGGAGTCACCTAGTGCAG” belongs 5270 fluorescence intensity (a.u.). “ATTCAATTACTCTGGATTTTAGTTATTCTCATGAAACTTCCGGAGTCACCTAGTGCAG”: the binding signal was 7820 fluorescence intensity (a.u.). On to “TTTCATTGTAATATAATTATGTAAGATCTTGTTCTAAAGACGGAGTCACCTAGTGCAG”, for which the binding signal was 4690 fluorescence intensity (a.u.).

For the sequence “AGATATTGATTATGTTTAGCCATGTGGCTCCTTAAATGGGCGGAGTCACCTAGTGCAG”, the binding signal was 32700 fluorescence intensity (a.u.). Consider “ATTCGTCTCGCAAATTAGCCGTAATATGTACAATTAGCTTCGGAGTCACCTAGTGCAG”, for which the binding signal is 3330 fluorescence intensity (a.u.). As for “AAGTAATCAAATAGGATCCTAGATCTAAACTGCTTACTTGCGGAGTCACCTAGTGCAG”, the binding signal was 3440 fluorescence intensity (a.u.). In the case of “CGTGTGATTCAAACCGATCCCAATCACCAAACTGCGCCGCCGGAGTCACCTAGTGCAG”, the binding signal was 4140 fluorescence intensity (a.u.).

Take “TTTGATGACCGACAGGCAAGTCTCCTTGATTTCCATCGAGCGGAGTCACCTAGTGCAG”: the binding signal was 5200 fluorescence intensity (a.u.).

Regarding “TGCATGATTATGTGTTGCAAATGCTCCTTACTCCCGTAGCCGGAGTCACCTAGTGCAG”, the binding signal was 20900 fluorescence intensity (a.u.). To “GCTGATTGCCATTGATTCATATTCATTGTGTGCCATCTGGCGGAGTCACCTAGTGCAG” belongs 58800 fluorescence intensity (a.u.). For “ACCCAGCCAATTGACAATTCGATGGTGACTAATGGTGAACCGGAGTCACCTAGTGCAG”, the binding signal was 10400 fluorescence intensity (a.u.).

As to “CATGGCATTAATTGTTACCCCTCCTGAGTCCTGATCATGGCGGAGTCACCTAGTGCAG”, the binding signal was 10600 fluorescence intensity (a.u.). As to “AAGCGTTAATATTGATTGTGATTAGCCGCCGTGGGCAACACGGAGTCACCTAGTGCAG”, the binding signal is 36300 fluorescence intensity (a.u.). Take “AGACGGTGGACATGAAATTGATGAGTAAAGAACCTAATTGCGGAGTCACCTAGTGCAG”: the binding signal is 3780 fluorescence intensity (a.u.).

“CCTGTTAATTGAGCAGGAGCCAACAACCCAACTATAACCCCGGAGTCACCTAGTGCAG”: the binding signal was 34600 fluorescence intensity (a.u.). For “AATGACAGGAAAGGAACTAGGGCTAGGGAAGACACAAACTCGGAGTCACCTAGTGCAG”, the binding signal is 4620 fluorescence intensity (a.u.). As to “ACCCACGAATTAAATAAATTGGCTATAGGTGACTATCCATCGGAGTCACCTAGTGCAG”, the binding signal is 15000 fluorescence intensity (a.u.).

Turning to “TTTGATATCACTCATAGATGATGAAGGTTAAACAGTGCCTCGGAGTCACCTAGTGCAG”, the binding signal was 4090 fluorescence intensity (a.u.). To “CGATTTGTATTGATAGGAAATTTGTTAAGACGGGTTAACACGGAGTCACCTAGTGCAG” belongs 15100 fluorescence intensity (a.u.).
